The whole screen tested about 420,000 compounds, of which about 50,000 (12%) were called active. The shares of active, inactive and inconclusive entries below differ from those in the screen. Calls follow the shape of the dose curve; as a rule, active = well fitted inhibition curve with a large enough effect; inconclusive = small, poorly fitted or top-dose-only effect; inactive = flat fitted curve, though single readings scatter. No potency is given beside an inconclusive call; the fits are too rough.
Assay: qHTS for Inhibitors of human tyrosyl-DNA phosphodiesterase 1 (TDP1): qHTS in cells in presence of CPT; also: nearly all actives have a fitted effect of over 55% in size
Conditions: chicken DT40 Tdp1-/-;hTDP1 cells + 20 nM CPT, ATP luminescence, 48 h; activity change, negative = growth inhibition: at 46.2 µM (top of the series)
Summary of the method: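 Chicken DT40 Tdp1-/- cells stably complemented with human TDP1 were seeded at 400 cells/well in medium containing 20 nM camptothecin, exposed to pin-transferred compounds, and grown at 37 °C for at least 48 hr. Viability was read as ATP luminescence.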
% is scaled to controls: 0 for no effect and ±100 for the full control effect; potency is read from the fitted curve at half-maximal effect; tags tell the direction and shape of the fitted curve.

Structure (SMILES)	Potency	activity change, negative = growth inhibition
O=C(NCc1ccco1)C1CC(c2ccccc2C(F)(F)F)=NO1 (centres undefined)	inconclusive [inhibitor, single point]	–
COc1ccc([N+](=O)[O-])cc1NC(=O)Cc1c(Cl)cccc1Cl	–	inactive: -5.8%
CN1C(=O)[C@H](Cc2ccc([N+](=O)[O-])cc2)NC1=S	inconclusive [inhibitor, single point]	–
CCN(C(=O)c1c([N+](=O)[O-])cnn1C)c1ccccc1	–	inactive: -21%
COc1ccccc1N(CCC#N)C(=O)CSc1ccc2c(c1)OCCO2	inconclusive [inhibitor, partial curve]	–
COc1ccc(C(=O)NCCn2cc(SCC(=O)NCCc3ccc(OC)c(OC)c3)c3ccccc32)cc1	active: 18.4 µM	–
Cc1n[nH]c(C)c1S(=O)(=O)N(CC(=O)NC(C)c1ccccc1)c1ccc(C(C)C)cc1 (centres undefined)	inconclusive [inhibitor, single point]	–
COCCCNC(=O)CN1C(=O)COc2ccc(S(=O)(=O)N3CCCC3)cc21	–	inactive: 2.38%
O=C(Nc1nc(-c2cc3ccccc3o2)cs1)c1ccc(S(=O)(=O)N2CCCC2)cc1	active: 16.4 µM	–
CC1=C(c2ccc(C)c(C)c2)S(=O)(=O)N=C1N1CCC(C(=O)NCCc2ccco2)CC1	inconclusive [inhibitor, single point]	–
COc1ccccc1OCCCCCc1c(C)n[nH]c1C	inconclusive [inhibitor, single point]	–
CN1CCN(c2ccc(-c3cccc(NC(=O)COc4ccc(Cl)cc4)c3)nn2)CC1	inconclusive [inhibitor, single point]	–
C#Cc1ccc(NC(=O)C2(C)CCN2C(=O)CC(c2ccccc2)c2ccccc2)cc1 (centres undefined)	active: 16.4 µM	–
CCCn1c(/C=C/c2ccco2)nc2ccccc21	active: 16.4 µM	–
CCC1(c2ccccc2)NC(=O)N(CC(=O)N2CCc3ccccc32)C1=O (centres undefined)	inconclusive [inhibitor, single point]	–
Cc1ccc(Sc2c(C(=O)Nc3ccc(F)cc3F)c(C(F)(F)F)nn2C)cc1	active: 18.4 µM	–
CC(Sc1nc2ccc(Br)cc2[nH]1)C(=O)O (centres undefined)	–	inactive: -2.9%
O=C1NN(c2ccccc2)C(=O)/C1=C\c1ccccc1OCC(=O)N1CCOCC1	–	inactive: 0.507%
O=C(Nc1ccc2oc(Cc3ccc(Cl)cc3)nc2c1)c1cccnc1	inconclusive [inhibitor, single point]	–
CSc1ncccc1C(=O)OCC(=O)NCCc1ccccc1	–	inactive: -12.6%
O=C(Cc1c(F)cccc1Cl)Nc1ccccc1N1CCCCC1	active: 16.4 µM	–
CCCCC(=O)N1CCN(c2nc(-c3ccc(F)cc3)cs2)CC1	inconclusive [inhibitor, single point]	–
COc1ccc(NS(=O)(=O)c2cc(NC(=O)COc3ccccc3F)ccc2OC)cc1	inconclusive [inhibitor, single point]	–
CC(=O)NCCNc1ncnc2ccc(-c3c(C)noc3C)cc12	inconclusive [inhibitor, single point]	–
Cc1ccc(-c2cc(C(=O)N3CCN(S(=O)(=O)c4ccc(Br)cc4)CC3)[nH]n2)cc1C	active: 9.2 µM	–

Structure (SMILES)	Potency	activity change, negative = growth inhibition
Cc1cccc(C(=O)N2CCCC(N3CCN(Cc4ccc5c(c4)OCO5)CC3)C2)n1 (centres undefined)	–	inactive: -9.79%
COc1cc(CN2CCCC(N3CCN(c4ccc(F)cc4)CC3)C2)ccc1F (centres undefined)	active: 20.6 µM	–
CN1CCN(/C(=N\O)c2nonc2N)CC1	inconclusive [inhibitor, single point]	–
CCNC(=S)N1CCN(Cc2ccc3c(c2)OCO3)CC1	–	inactive: -11.5%
CCOc1cc(S(=O)(=O)NCCCn2ccnc2)ccc1Cl	inconclusive [inhibitor, single point]	–
O=S1(=O)CC(O)C(N2CCC(c3ccccc3)CC2)C1 (centres undefined)	–	inactive: -11.3%
CCOC(=O)c1oc2ccc(/C=N/O)c(Cl)c2c1C	–	inactive: 6.8%
Cc1cc(OCC(=O)NCc2ccccn2)c2c(C)cc(=O)oc2c1	–	inactive: 7.17%
Cc1ccc(Nc2nc(OC(C(F)(F)F)C(F)(F)F)nc(N3CCOCC3)n2)cc1	inconclusive [inhibitor, partial curve]	–
O=C(NNC(=O)c1ccccc1[N+](=O)[O-])c1ccccn1	inconclusive [inhibitor, single point]	–
COc1ccc(OCCN(C)C(=O)c2cccc(S(=O)(=O)N(C)c3ccccc3)c2)cc1	active: 11.6 µM	–
Cc1ccc(SC(C)C(=O)N2CCC(C(N)=O)CC2)cc1 (centres undefined)	–	inactive: -0.634%
CCC(=O)NCC(c1ccc2c(c1)OCO2)N1CCN(c2ccccc2)CC1 (centres undefined)	inconclusive [inhibitor, single point]	–
O=C(OCN1C(=O)c2ccccc2C1=O)c1cccnc1SC(F)F	–	inactive: 8.84%
CCOc1ccc(NCc2cccn2-c2nnc(N3CCC(C(=O)NCCc4ccc(OC)c(OC)c4)CC3)s2)cc1	inconclusive [inhibitor, single point]	–
O=c1cc(S(=O)(=O)Cc2ccccc2)[nH]c(=O)[nH]1	–	inactive: -0.179%
COc1cc(Cl)c(C)cc1NC(=O)c1ccccc1NC(=O)CN1CCN(c2ccccn2)CC1	active: 18.4 µM	–
COC(=O)c1ccc(C(=O)N2CCCC(Nc3ccc(C(C)C)cc3)C2)nc1 (centres undefined)	inconclusive [inhibitor, single point]	–
CC(=O)COc1nc2c(c(-c3ccco3)c1C#N)CCc1ccccc1-2	inconclusive [inhibitor, single point]	–
Cc1nc(N2CCN(c3ccccn3)CC2)c2c(C)c(C(=O)N3CCN(c4cccc(Cl)c4)CC3)sc2n1	active: 14.6 µM	–
COc1ccc(-c2ccc(C(=O)NCCN3CCOCC3)c3occc23)c(C)c1	inconclusive [inhibitor, single point]	–
COc1ccc(Cl)cc1-n1c(C)ccc1C	–	inactive: -18.2%
O=c1c2ccccc2nc(CSc2nnnn2-c2ccccc2)n1-c1ccccc1	–	inactive: -15.2%
COc1ccc(-c2cc(C)no2)cc1S(=O)(=O)N1CCCCC1	inconclusive [inhibitor, single point]	–

Source: PubChem BioAssay AID686979 (National Center for Advancing Translational Sciences (NCATS), 2013)
